In the RNAGym collection of RNA variant scans (doi:10.7554/elife.90254):
The source gives no read counts; variants with many changes may rest on few reads.

B1: LINE1-full (parent)
chain: UACGUAGGUGGUUUUCCCCUGAUAGUGCUAAGGGGGCCUGGAAGUUUGGACUGGGCAGAGCUCAACACAGCGUGGCAAAGUGGCUGUGGCUAGACUGCCUCUCUGGAUUCCUCGUCACUCAGCAGGGCAUCUCUGAGAGAAAUGCC

Variants of: B1
Test: self-cleavage, relative activity (ratio to wild type); higher = more cleavage; in vitro, sequencing; the parent is a self-cleaving ribozyme

| Variant | self-cleavage |
| --- | --- |
| A6U A50C A59G U87C | 0 |
| A42G A79G U85A U108C | 0.3 |
| U39C A59G C99U A140G | 0.04 |
| A6U A43G U119C A140G | 1.91 |
| G55U A65G G88A U100C U115C A140G | 0.03 |
| U26C U46C U62C | 0 |
| A42G C118U A140U | 1.41 |
| U20C A67G A117G A124U | 0 |
| U47G A69G A129G | 0.74 |
| U87C U102C U108C | 0.84 |
| U20C A22U U81G U108C | 1.78 |
| C16U A59U A69U U143A | 0.03 |
| U52C A57U A141G | 0.03 |
| U13C U73C U115A A124G | 2.85 |
| U20A A124U U132C | 1.56 |
| G72A U91C U102C | 0.34 |
| U39C U130C A136G | 1.74 |
| U14C U39C A94U | 0.24 |
| C3U U62C U130C A142G | 0.43 |
| U12C A64G U108C G125C | 0.75 |
| U73A U96A U119C | 0.04 |
| U15A A31G G35A U73C U130C | 1.6 |
| A50U U102A U104A A117C A121G A124G | 1.53 |
| C61U A141G U143C | 0.04 |

| Variant | self-cleavage |
| --- | --- |
| U5A U96G U134C | 0.46 |
| U85A A92C U134C | 0.34 |
| A22G U85A G126A | 0.12 |
| G41U A77U U112C A136G | 2.18 |
| U9C G10A U132C U134C A140G | 1.97 |
| A65G A79U A107G | 0 |
| U9G U39C U73C A140G | 1.02 |
| A2G U9A U15A U62C | 0.13 |
| C37U U39C G93U | 0.02 |
| U15C U52C A57G A142G | 0 |
| A42G U81A U132C | 2.52 |
| A57G U100C C113A | 0.73 |
| G4A G48A U62A C113U | 0.04 |
| U62A C63A A142G | 0.1 |
| U1C U39A A57G | 0.36 |
| U20G U39A U132A | 1.25 |
| U13C U52C C111U A138G | 1.1 |
| U13C A64G U115A A142G | 0.53 |
| A24G U47C G72C | 1.77 |
| A69G A107G A138U | 1.41 |
| U45C C131U A140C | 1.68 |
| A24G U45C A65G C68U | 0.04 |
| U15A A31G U104C | 0.57 |
| U12C C16U U20C U62A U100C | 0.28 |

| Variant | self-cleavage |
| --- | --- |
| C18A C76U U87A | 0.13 |
| U46C A64G A107U | 0.34 |
| C3U U13C C28G | 1.72 |
| U20C A22U G27U U73A U91C | 0 |
| A22U A65G U96C A140G | 0.28 |
| U85A U87C A92G U100C A121U | 0.77 |
| G7A A69G G88A A92U A94U U104C A129U | 0.02 |
| G40A U62C A69G U115C | 0.08 |
| A2U U73C U102C | 1.58 |
| U62A U104A A117G | 0.07 |
| U73C G88U G89A U112A A117G A121G | 0.03 |
| A67G G74A A79G U134A | 0.06 |
| U13C A64U A140G | 1.09 |
| U12C U109A A140G U143C | 0 |
| U15C U45C A78G A92G | 0.4 |
| U73G U109C A141G | 0.9 |
| U39A A117G G122C A138G | 1.77 |
| C18A A78G C99U C145G | 0.45 |
| U26A U119C A138G | 1.38 |
| A59G G72A A94G G114A | 0.1 |
| A42U C63A A77G U100A C101U U102C A140G | 0.06 |
| U52C U62C G72A C95U A121U | 0 |
| U12G A129U A138G | 1.47 |
| U9C A22G C38U A69G U102C A124G | 1.02 |

| Variant | self-cleavage |
| --- | --- |
| U20A A42G U143C | 1.99 |
| U14C U52G A78G A121U | 0.89 |
| A31G A57U U85C | 0 |
| U15C A64U C110G A140G A142G | 0.33 |
| A31U A79G U132A | 1.31 |
| A2G U39A U45C | 2.23 |
| C99U U130C U134C | 0.63 |
| A107U A136G A140G | 1.79 |
| U1C G86A A107U U112C | 0.06 |
| U14C A43G U62C G122A U134A | 0.09 |
| A42G A43G G54A | 0.27 |
| U14C U39C A42G U109C C145A | 0 |
| C56A U87C U143A | 0.02 |
| U52A A57G C113U U115G A141G | 1.14 |
| A31C G32U G35A A65U G83A U119C | 0.05 |
| U62C U100C U112C | 0 |
| A78G U109C A138G A140G | 0.73 |
| U26A A79G A124U | 0.27 |
| U12G A67U A78U U87C | 0.24 |
| U29A C63A U85A C98G | 0.03 |
| A64C A67G A77G U104A A129U | 0 |
| U26A U39G U46G G53A | 0.57 |
| U29C G54A A59G | 0.32 |
| U45C A78G U130C | 0.92 |

| Variant | self-cleavage |
| --- | --- |
| U45C U130C A138G | 0.8 |
| A22U A65G A77G U104A | 0 |
| U12G U39A A69C | 0.29 |
| U12G A24G U85A U104C A138G A140G | 0 |
| U15C A31G A43G A64G | 0.84 |
| A42G G89A U102C | 0.04 |
| U14C U20A U87A | 0.35 |
| A43C U115C U134C C145A | 0.92 |
| U45C U73A U85C | 0.17 |
| C16U G80U G127A C146U | 1.4 |
| U26A A65G A78U | 0.06 |
| G83A U87C U115A | 0.19 |
| U12C U20C C37G U47C U115A G122A A140U | 1.39 |
| U29C A65G U104A A142G | 0.14 |
| A65G U112C U130C | 0.15 |
| G8U A42G U81A | 2.16 |
| U52A U73C U130C A138U | 2.04 |
| U20C U47C C68U U85G | 0.12 |
| U14C A67U A79G A136G | 0.12 |
| U12C U112C U143C C145U | 0.76 |
| U5A U29C U45C U47C | 1.84 |
| G7A U15C A65G | 0.06 |
| U26C U39G A78G U112C | 1.15 |
| A94G U108C C123U | 0.35 |

| Variant | self-cleavage |
| --- | --- |
| C17U A22G U45A U108C | 0.67 |
| U20C U26C A94G A142G | 0.59 |
| A57U A59G A77G G126U A136G | 0.1 |
| G54U A64G A67C A117G | 0 |
| U12C C17U A129G | 0.75 |
| A42U U85G U130C A141G | 0.05 |
| G27A A42G U143A | 1 |
| U23C U87A A94G | 0.27 |
| U9A U20C A50G U62C A79U | 0.19 |
| U26A A59G A69U | 0.08 |
| U13C A24G A92U U104C U132C | 0.84 |
| U100A A107G U132C | 1.62 |
| G33A U73C U108C | 1.31 |
| A6U U52C A57G A59G U119C A142G | 0 |
| U9C U13A A31U U100C | 1.47 |
| U15A C37G U134C | 1.48 |
| U73A G88A A117G G122U A136G | 0.03 |
| U23A U45A U47A U100C | 2.53 |
| U47C U81A A92G U130C | 0 |
| U12C G49A A141G | 1.01 |
| C3U U23C A141G | 0.57 |
| U46A U73G A79C | 0.42 |
| U15C A22G A67G A69G | 0.34 |
| U15C U39C A117U A140G | 1.84 |

| Variant | self-cleavage |
| --- | --- |
| U39A U81G U85A A141G | 0.11 |
| A2G U26C A64G U73A G122C | 0.32 |
| U1C A107G A124U | 0.64 |
| C38U A42C A43G A129G A138G | 1.72 |
| U46C A57G U73A A78C U130C A141U A142G | 1.02 |
| A43G U85A U134C | 0.12 |
| U81A U109C A124G | 1.56 |
| C68U A79G A136U | 0.12 |
| A30G U96A A138G | 0.15 |
| C68G A94C U143C | 0 |
| U20C U23C U119A | 0.8 |
| G36C A42U A43G A107G | 0.82 |
| U15C A79G U112C | 1.82 |
| U13C U20A U52A A64G U112C | 0 |
| A67C G93A U104A A142C | 0.04 |
| U15C C51U A65G | 0.12 |
| U46C A57G A69G U108C | 1.15 |
| U13C G40A U115C | 1.17 |
| A30U A59U U112C | 0.68 |
| U26G A59U U87C | 0 |
| U13C U96C U100C | 0 |
| A64U A77U U100C U132A A140G A142U | 0.62 |
| C19U G40A A69G C95U | 0.06 |
